Measurements from the supplement of paper PMC8728848.
Some of the results follow.

Assays:
Experiment in all cases: glycan array binding signal (z-score within array); higher = stronger binding
Settings in all cases: glycan notation: IUPAC condensed, linker removed
Neu5Ac(a2-3)Gal = biological target: Neu5Ac(a2-3)Gal
Summary of the method: (§1)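 The binding signal is a Z-score computed within each array. Data were drawn from 3228 arrays in the Consortium for Functional Glycomics database, restricted to those with a known protein sequence. Scores were averaged over arrays of the same protein sequence at different concentrations or buffers, and over linkers, and negative values can be taken as non-binding.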

[1] = biological target: Neu5Ac(a2-3)Gal(b1-3)GalNAc
Summary of the method: as §1

[2] = biological target: Neu5Ac(a2-3)Gal(b1-3)GalNAc(b1-3)Gal(a1-4)Gal(b1-4)Glc
Summary of the method: as §1

[3] = biological target: Neu5Ac(a2-3)Gal(b1-3)GalNAc(b1-4)Gal(b1-4)Glc
Summary of the method: as §1

[4] = biological target: Neu5Ac(a2-3)Gal(b1-3)GalNAc(b1-4)[Neu5Ac(a2-3)]Gal(b1-4)Glc
Summary of the method: as §1

[5] = biological target: Neu5Ac(a2-3)Gal(b1-3)GalNAc(b1-4)[Neu5Ac(a2-8)Neu5Ac(a2-3)]Gal(b1-4)Glc
Summary of the method: as §1

[6] = biological target: Neu5Ac(a2-3)Gal(b1-3)GalNAc6S
Summary of the method: as §1

[7] = biological target: Neu5Ac(a2-3)Gal(b1-3)GlcNAc
Summary of the method: as §1

[8] = biological target: Neu5Ac(a2-3)Gal(b1-3)GlcNAc(b1-2)Man
Summary of the method: as §1

[9] = biological target: Neu5Ac(a2-3)Gal(b1-3)GlcNAc(b1-2)Man(a1-3)[GlcNAc(b1-4)][Neu5Ac(a2-3)Gal(b1-3)GlcNAc(b1-2)Man(a1-6)]Man(b1-4)GlcNAc(b1-4)GlcNAc
Summary of the method: as §1

[10] = biological target: Neu5Ac(a2-3)Gal(b1-3)GlcNAc(b1-2)Man(a1-3)[Neu5Ac(a2-3)Gal(b1-3)GlcNAc(b1-2)Man(a1-6)]Man(b1-4)GlcNAc(b1-4)GlcNAc
Summary of the method: as §1

[11] = biological target: Neu5Ac(a2-3)Gal(b1-3)GlcNAc(b1-2)[Neu5Ac(a2-3)Gal(b1-3)GlcNAc(b1-4)]Man(a1-6)[Neu5Ac(a2-3)Gal(b1-3)GlcNAc(b1-2)Man(a1-3)]Man(b1-4)GlcNAc(b1-4)GlcNAc
Summary of the method: as §1

[12] = biological target: Neu5Ac(a2-3)Gal(b1-3)GlcNAc(b1-3)Gal(b1-3)GlcNAc
Summary of the method: as §1

[13] = biological target: Neu5Ac(a2-3)Gal(b1-3)GlcNAc(b1-3)Gal(b1-4)GlcNAc
Summary of the method: as §1

[14] = biological target: Neu5Ac(a2-3)Gal(b1-3)GlcNAc(b1-3)GalNAc
Summary of the method: as §1

[15] = biological target: Neu5Ac(a2-3)Gal(b1-3)GlcNAc(b1-6)GalNAc
Summary of the method: as §1

[16] = biological target: Neu5Ac(a2-3)Gal(b1-3)GlcNAc6S
Summary of the method: as §1

[17] = biological target: Neu5Ac(a2-3)Gal(b1-3)[Fuc(a1-4)]GlcNAc
Summary of the method: as §1

[18] = biological target: Neu5Ac(a2-3)Gal(b1-3)[Fuc(a1-4)]GlcNAc(b1-3)Gal(b1-3)[Fuc(a1-4)]GlcNAc
Summary of the method: as §1

[19] = biological target: Neu5Ac(a2-3)Gal(b1-3)[Fuc(a1-4)]GlcNAc(b1-3)Gal(b1-4)[Fuc(a1-3)]GlcNAc
Summary of the method: as §1

[20] = biological target: Neu5Ac(a2-3)Gal(b1-3)[GlcNAc(b1-6)]GalNAc
Summary of the method: as §1

[21] = biological target: Neu5Ac(a2-3)Gal(b1-3)[Neu5Ac(a2-6)]GalNAc
Summary of the method: as §1

[22] = biological target: Neu5Ac(a2-3)Gal(b1-3)[Neu5Ac(a2-6)]GlcNAc(b1-3)[Fuc(a1-3)[Gal(b1-4)]GlcNAc(b1-6)]Gal(b1-4)Glc
Summary of the method: as §1

[23] = biological target: Neu5Ac(a2-3)Gal(b1-3)]Neu5Ac(a2-3)Gal(b1-4)]GlcNAc
Summary of the method: as §1

Neu5Ac(a2-3)Gal(b1-4)Glc = biological target: Neu5Ac(a2-3)Gal(b1-4)Glc
Summary of the method: as §1

[24] = biological target: Neu5Ac(a2-3)Gal(b1-4)GlcNAc
Summary of the method: as §1

[25] = biological target: Neu5Ac(a2-3)Gal(b1-4)GlcNAc(b1-2)Man
Summary of the method: as §1

[26] = biological target: Neu5Ac(a2-3)Gal(b1-4)GlcNAc(b1-2)Man(a1-3)[GlcNAc(b1-4)][Neu5Ac(a2-3)Gal(b1-4)GlcNAc(b1-2)Man(a1-6)]Man(b1-4)GlcNAc(b1-4)GlcNAc
Summary of the method: as §1

[27] = biological target: Neu5Ac(a2-3)Gal(b1-4)GlcNAc(b1-2)Man(a1-3)[Neu5Ac(a2-3)Gal(b1-4)GlcNAc(b1-2)Man(a1-6)]Man(b1-4)GlcNAc(b1-4)GlcNAc
Summary of the method: as §1

[28] = biological target: Neu5Ac(a2-3)Gal(b1-4)GlcNAc(b1-2)Man(a1-3)[Neu5Ac(a2-3)Gal(b1-4)GlcNAc(b1-2)Man(a1-6)]Man(b1-4)GlcNAc(b1-4)[Fuc(a1-6)]GlcNAc
Summary of the method: as §1

[29] = biological target: Neu5Ac(a2-3)Gal(b1-4)GlcNAc(b1-2)Man(a1-3)[Neu5Ac(a2-6)Gal(b1-4)GlcNAc(b1-2)Man(a1-6)]Man(b1-4)GlcNAc(b1-4)GlcNAc
Summary of the method: as §1

[30] = biological target: Neu5Ac(a2-3)Gal(b1-4)GlcNAc(b1-2)[Neu5Ac(a2-3)Gal(b1-4)GlcNAc(b1-4)]Man(a1-3)[GlcNAc(b1-4)][Neu5Ac(a2-3)Gal(b1-4)GlcNAc(b1-2)[Neu5Ac(a2-3)Gal(b1-4)GlcNAc(b1-6)]Man(a1-6)]Man(b1-4)GlcNAc(b1-4)GlcNAc
Summary of the method: as §1

[31] = biological target: Neu5Ac(a2-3)Gal(b1-4)GlcNAc(b1-2)[Neu5Ac(a2-3)Gal(b1-4)GlcNAc(b1-4)]Man(a1-3)[GlcNAc(b1-4)][Neu5Ac(a2-3)Gal(b1-4)GlcNAc(b1-4)Man(a1-6)]Man(b1-4)GlcNAc(b1-4)GlcNAc
Summary of the method: as §1

[32] = biological target: Neu5Ac(a2-3)Gal(b1-4)GlcNAc(b1-2)[Neu5Ac(a2-3)Gal(b1-4)GlcNAc(b1-6)]Man(a1-6)[Neu5Ac(a2-3)Gal(b1-4)GlcNAc(b1-2)Man(a1-3)][GlcNAc(b1-4)]Man(b1-4)GlcNAc(b1-4)GlcNAc
Summary of the method: as §1

[33] = biological target: Neu5Ac(a2-3)Gal(b1-4)GlcNAc(b1-3)Gal
Summary of the method: as §1

[34] = biological target: Neu5Ac(a2-3)Gal(b1-4)GlcNAc(b1-3)Gal(b1-3)GlcNAc
Summary of the method: as §1

[35] = biological target: Neu5Ac(a2-3)Gal(b1-4)GlcNAc(b1-3)Gal(b1-4)GlcNAc
Summary of the method: as §1

B1: DC-ASGPR L+GEE (Homo sapiens) (protein)
chain: MTRTYENFQYLENKVKVQGFKNGPLPLQSLLQRLRSGPCHLLLSLGLGLLLLVIICVVGFQNSKFQRDLVTLRTDFSNFTSNTVAEIQALTSQGSSLEETIASLKAEVEGFKQERQAGVSELQEHTTQKAHLGHCPHCPSVCVPVHSEMLLRVQQLVQDLKKLTCQVATLNNNGEEASTEGTCCPVNWVEHQDSCYWFSHSGMSWAEAEKYCQLKNAHLVVINSREEQNFVQKYLGSAYTWMGLSDPEGAWKWVDGTDYATGFQNWKPGQPDDWQGHGLGGGEDCAHFHPDGRWNDDVCQRPYHWVCEAGLGQTSQESH
glycan array binding signal (z-score) (Neu5Ac(a2-3)Gal): -0.812 | glycan array binding signal (z-score) [1]: -0.017 | glycan array binding signal (z-score) [2]: -0.449 | glycan array binding signal (z-score) [3]: -0.577 | glycan array binding signal (z-score) [4]: -0.263 | glycan array binding signal (z-score) [5]: -0.319 | glycan array binding signal (z-score) [6]: 0.811 | glycan array binding signal (z-score) [7]: -0.416 | glycan array binding signal (z-score) [8]: -0.732 | glycan array binding signal (z-score) [9]: 0.348 | glycan array binding signal (z-score) [10]: 0.432 | glycan array binding signal (z-score) [11]: -0.09 | glycan array binding signal (z-score) [12]: -0.735 | glycan array binding signal (z-score) [13]: -0.48 | glycan array binding signal (z-score) [14]: 0.286 | glycan array binding signal (z-score) [15]: 6.64 | glycan array binding signal (z-score) [16]: -0.488 | glycan array binding signal (z-score) [17]: -0.265 | glycan array binding signal (z-score) [18]: -0.039 | glycan array binding signal (z-score) [19]: -0.537 | glycan array binding signal (z-score) [20]: -0.297 | glycan array binding signal (z-score) [21]: 0.342 | glycan array binding signal (z-score) [22]: -0.338 | glycan array binding signal (z-score) [23]: -0.287 | glycan array binding signal (z-score) (Neu5Ac(a2-3)Gal(b1-4)Glc): -0.376 | glycan array binding signal (z-score) [24]: -0.087 | glycan array binding signal (z-score) [25]: 0.423 | glycan array binding signal (z-score) [26]: 0.2 | glycan array binding signal (z-score) [27]: -0.038 | glycan array binding signal (z-score) [28]: 0.023 | glycan array binding signal (z-score) [29]: -0.042 | glycan array binding signal (z-score) [30]: -0.155 | glycan array binding signal (z-score) [31]: -0.188 | glycan array binding signal (z-score) [32]: -0.257 | glycan array binding signal (z-score) [33]: -0.336 | glycan array binding signal (z-score) [34]: -0.203 | glycan array binding signal (z-score) [35]: -0.211
